Data from patent US20160075790A1 (Bristol-Myers Squibb, published 2016).

T1: human CD40L, membrane-bound on cells (human, UniProt P29965 1-261)
T1 sequence: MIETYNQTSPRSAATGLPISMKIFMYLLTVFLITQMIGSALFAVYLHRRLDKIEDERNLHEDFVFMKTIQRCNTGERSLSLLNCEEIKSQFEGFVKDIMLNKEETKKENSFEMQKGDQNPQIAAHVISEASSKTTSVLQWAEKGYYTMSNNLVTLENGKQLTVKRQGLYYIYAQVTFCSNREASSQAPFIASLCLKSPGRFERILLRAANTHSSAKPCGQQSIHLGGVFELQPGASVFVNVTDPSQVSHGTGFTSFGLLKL

T2: human isoleucine zipper-CD40L (IZ-hCD40L) (human, UniProt P29965 113-261)
T2 sequence: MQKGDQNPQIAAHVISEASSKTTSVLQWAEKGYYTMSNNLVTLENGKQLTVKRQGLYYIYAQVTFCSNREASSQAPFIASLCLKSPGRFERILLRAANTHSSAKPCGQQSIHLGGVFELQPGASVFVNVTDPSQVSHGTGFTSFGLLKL

T3: biotinylated IZ-hCD40L (biot-IZ-hCD40L) (human, UniProt P29965 113-261, biotinylated)
T3 construct: biotinylated version of IZ-hCD40L captured on streptavidin chip; also called biotinylated CD40L; not shown: N-terminal isoleucine zipper motif
T3 sequence: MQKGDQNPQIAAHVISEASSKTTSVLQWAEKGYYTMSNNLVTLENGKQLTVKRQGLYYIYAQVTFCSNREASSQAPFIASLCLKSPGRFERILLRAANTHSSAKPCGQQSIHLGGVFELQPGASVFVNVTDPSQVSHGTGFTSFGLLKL

T4: cynomolgus monkey CD40L on cells (cynomolgus monkey, UniProt G7Q1T4 1-261)
T4 construct: whole, on cells; also called Cyno CD40L
T4 sequence: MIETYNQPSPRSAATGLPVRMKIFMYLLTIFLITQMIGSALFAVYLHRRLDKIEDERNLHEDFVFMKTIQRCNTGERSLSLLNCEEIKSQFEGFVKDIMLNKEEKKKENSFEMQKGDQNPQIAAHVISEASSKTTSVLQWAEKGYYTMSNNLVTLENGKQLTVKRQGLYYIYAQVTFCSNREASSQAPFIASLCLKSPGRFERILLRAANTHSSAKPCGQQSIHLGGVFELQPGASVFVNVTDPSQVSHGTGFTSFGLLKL


Columns and labels:
[1] = target: T1, human CD40L, membrane-bound on cells; test: cell-based or functional assay
[2] = target: T2, human isoleucine zipper-CD40L …; test: cell-based or functional assay
[3] = target: T3, biotinylated IZ-hCD40L (biot-IZ-hCD40L); test: SPR (Biacore), 25 C, 1:1 Langmuir; value influenced by avidity
[4] = target: T4, cynomolgus monkey CD40L on cells; test: in vivo receptor occupancy on monkey PBMC after 11 mg/kg IV; PK/PD Emax model

Row | CHO-hCD40L-driven DC Activation IL-12 EC50 [1] | CHO-hCD40L-driven Human B Cell Proliferation EC50 [1] | T-B cell MLR EC50 [1] | T-B cell MLR IL-6 EC50 [1] | hIZCD40L-driven Human B Cell Proliferation EC50 [2] | Kd [3] | koff [3] | kon [3] | EC50 [4] | Binder
1 | 3.1 nM | 2.5 nM | 1.7 nM | 1.3 nM | 3 nM |  |  |  |  | 2h719-202-CT Long Fc (Fc fusion) EVQLLESGGGLVQPGGSLRLSCAASGFTFKKYEMMWVRQAPGKGLEWVSSISSDGSFTYYADSVKGRFTISRDNSKNTLYLQMNSLRAEDTAVYYCAEPFTEFDYWGHGTLVTVSSAST[not shown - human IgG1 Fc with changes]
2 |  |  |  |  |  | 0.11 nM | 0.00026 s⁻¹ | 2.3e+06 M⁻¹ s⁻¹ | 3.4 nM | BMS-986004 (Fc fusion) EVQLLESGGGLVQPGGSLRLSCAASGFTFNWELMGWARQAPGKGLEWVSGIEGPGDVTYYADSVKGRFTISRDNSKNTLYLQMNSLRAEDTAVYYCVKVGKDAKSDYRGQGTLVTVSSAST[not shown - human IgG1 Fc with changes]
